Hit rate of the full screen: of about 310,000 compounds, about 2,200 (0.71%) showed an effect of 50% or more. Effects have a minus sign here. Some of the results follow.
Target: human ether-à-go-go-related gene (hERG) potassium channel (human, UniProt Q12809)
Test: primary screen, population patch clamp on CHO cells stably expressing hERG

Chain of human ether-à-go-go-related gene (hERG) potassium channel (Q12809 whole entry, looked up): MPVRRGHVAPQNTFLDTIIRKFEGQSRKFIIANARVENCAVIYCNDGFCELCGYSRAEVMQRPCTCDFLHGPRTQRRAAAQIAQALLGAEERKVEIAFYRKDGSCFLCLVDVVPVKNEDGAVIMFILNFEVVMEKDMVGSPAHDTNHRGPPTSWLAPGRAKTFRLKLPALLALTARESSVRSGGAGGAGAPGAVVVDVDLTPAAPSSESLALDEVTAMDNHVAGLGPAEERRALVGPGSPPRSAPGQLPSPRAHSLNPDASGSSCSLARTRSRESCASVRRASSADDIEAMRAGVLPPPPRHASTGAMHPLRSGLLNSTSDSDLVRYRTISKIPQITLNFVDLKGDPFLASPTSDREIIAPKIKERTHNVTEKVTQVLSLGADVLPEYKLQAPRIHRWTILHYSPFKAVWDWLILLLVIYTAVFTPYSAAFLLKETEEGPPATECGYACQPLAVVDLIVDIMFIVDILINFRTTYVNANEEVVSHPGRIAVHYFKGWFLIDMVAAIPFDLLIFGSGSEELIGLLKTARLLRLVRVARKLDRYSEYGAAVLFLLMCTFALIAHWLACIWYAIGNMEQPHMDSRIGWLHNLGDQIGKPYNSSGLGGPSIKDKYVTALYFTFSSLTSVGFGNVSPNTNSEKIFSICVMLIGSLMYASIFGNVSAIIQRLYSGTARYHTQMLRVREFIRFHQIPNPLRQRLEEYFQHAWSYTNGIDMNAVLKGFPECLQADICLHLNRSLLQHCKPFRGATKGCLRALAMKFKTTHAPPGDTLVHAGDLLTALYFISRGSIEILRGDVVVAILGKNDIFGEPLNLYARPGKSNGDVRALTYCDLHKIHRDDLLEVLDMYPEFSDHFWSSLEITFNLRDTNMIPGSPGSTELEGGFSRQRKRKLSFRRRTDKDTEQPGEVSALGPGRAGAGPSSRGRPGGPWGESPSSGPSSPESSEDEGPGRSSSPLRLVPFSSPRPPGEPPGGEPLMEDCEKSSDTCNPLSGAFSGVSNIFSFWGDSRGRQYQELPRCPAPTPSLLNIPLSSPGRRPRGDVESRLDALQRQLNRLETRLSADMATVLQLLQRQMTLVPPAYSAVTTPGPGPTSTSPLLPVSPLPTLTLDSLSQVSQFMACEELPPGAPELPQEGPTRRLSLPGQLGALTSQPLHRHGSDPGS

| SMILES | hERG current change (%, negative = inhibition) at 1uM [%] |
| --- | --- |
| O=C(O)CC1(CC(=O)NCc2ccc(-c3cccs3)cc2)CCCCC1 | 12.8 |
| O=C(NCC12CC3CC(C1)CC(CNC(=O)N1CCCC1)(C3)C2)N1CCCC1 | -2.85 |
| COc1ccccc1C(=O)COC(=O)c1ccccc1O | 14.1 |
| NC(=O)CSc1oc(-c2ccco2)nc1S(=O)(=O)c1ccc(Br)cc1 | 7.85 |
| COc1cc(C(C)=O)ccc1Oc1cc(NN2CCCCC2)c([N+](=O)[O-])cc1[N+](=O)[O-] | -9.13 |
| O=C1NC(=Nc2ccccc2)S/C1=C/c1cccnc1 | 18.2 |
| CC(C)c1ccc(C2=NN(c3ccccc3)C(=O)CC2)cc1 | -4.22 |
| CCOP(=O)(CN(CC)CCNP(=O)(OCC)OCC)OCC | 5.28 |
| CN1CCN(C(=O)C2=C[C@H](c3ccc(Br)cc3)C[C@H](OCCCCO)O2)CC1 | -20.3 |
| COC(=O)c1cc(=O)n(Cc2ccc(OC)cc2)c(=NCc2ccc(OC)cc2)s1 | 9.52 |
| CC(C)c1nnc(NC(=O)CCS(=O)(=O)c2nc(-c3cccs3)cc(C(F)(F)F)n2)s1 | 14 |
| O=C1[C@H]2[C@@H](c3ccc(Cl)cc3)N3C(=O)N(c4cccc(F)c4)C(=O)[C@@]3(Cc3ccccc3)[C@H]2C(=O)N1C1CCCCC1 | 8.71 |
| O=C(NCc1cccc(Cl)c1)c1cnccn1 | -3.59 |
| O=C1NC2=C(C(=O)CCC2)C(c2ccc(OC(F)F)cc2)N1 (stereo not shown) | 7.69 |
| O=C(CCN1C(=O)C2C3C=CC(C3)C2C1=O)Oc1ccc2ccccc2c1 (stereo not shown) | -4.17 |
| CC(C)c1onc(C(=O)N2CCCCCC2)c1[N+](=O)[O-] | 11.8 |
| C=CCc1c(N(CC)CC)nc(C)[nH]c1=O | 7.81 |
| Nc1nc2n(c1C(=O)c1ccccc1)CCC2 | -7.79 |
| CCCCCCCCNC(=O)/C(C#N)=C/c1ccc(SC)cc1 | 7.94 |
| O=C(NCCCc1ccccc1)C1CCN(S(=O)(=O)c2ccc(F)cc2)CC1 | 9.86 |
| CCn1c(C(=O)OC)cc2c1ccn2-c1ccc(F)cc1 | 14.6 |
| CC(C)CNC(CC(=O)Nc1cccc([N+](=O)[O-])c1)C(=O)O (stereo not shown) | 12 |

| SMILES | hERG current change (%, negative = inhibition) at 1uM [%] |
| --- | --- |
| Cc1ccc(-n2c(O)c(C=Nc3ccc(S(N)(=O)=O)cc3)c(=O)[nH]c2=O)cc1 | 7.61 |
| CCOc1ccccc1N1CCN(Cc2cn[nH]c2-c2ccc(F)cc2)CC1 | -28.7 |
| Cc1ccc2nc3c(c(N)c2c1)CCN3c1ccccc1.O=C(O)C(=O)O | -2.46 |
| CCCc1ccc2oc(C(=O)N3CCCC3)c(C)c2c1 | 12.1 |
| O=C(Nc1ccc(F)cc1Cl)c1ccc2c(=O)n3c(nc2c1)CCCCC3 | 8.18 |
| CCCCN1C(=O)C(C)=C(C)C1OCCc1ccc(OC)c(OC)c1 (stereo not shown) | 17.1 |
| COc1ccc2cc(/C=C3\SC(=S)NC3=O)c(N3CCOCC3)nc2c1 | 14.2 |
| Cc1ccc(C)c(S(=O)(=O)NCc2ccc(C(=O)N3CCC(Cc4ccccc4)CC3)cc2)c1 | 8.87 |
| COc1ccc(C(CNC(=O)CNC(=O)c2cccc(C)c2)N2CCOCC2)cc1 (stereo not shown) | 18.5 |
| O=C(COC(=O)[C@H](Cc1ccccc1)NC(=O)c1ccco1)NC(c1ccccc1)c1ccccc1 | 4.1 |
| COc1ccc(/C=c2/sc3nc(-c4ccccc4)c(-c4ccccc4)n3c2=O)cc1 | -5.88 |
| O=C(N/N=C/c1ccco1)c1cc(-c2cccs2)[nH]n1 | 17.8 |
| COc1cc2c(cc1OC)[C@H](C)N(C(=O)NCc1ccccc1)CC2 | 8.29 |
| CCN1C(=O)CCC(C(=O)O)C1c1ccc(OC)cc1 (stereo not shown) | 12.5 |
| Cn1nc(C(F)(F)F)c2cc(C(=O)Nc3ccc(F)cc3F)sc21 | 10.6 |
| Cc1ccccc1C(=O)NN(C)c1nc2ccccc2nc1C(F)(F)F | 18.9 |
| CN(/N=C/c1ccc(C(C)(C)C)cc1)C1=NCCN1 | -24.5 |
| CCOc1ccc(NC(=O)CC2C(=O)N(c3ccc(OC)c(Cl)c3)C(=S)N2C2CC2)cc1 (stereo not shown) | 6.94 |
| Clc1cccc(Cl)c1-c1nnc2ccc(N3CCOCC3)nn12 | 11.4 |
| O=C(O)c1cc(-c2cccs2)nn1-c1cccc(Cl)c1 | 5.58 |
| COCCCn1c(CCC(=O)O)ccc1-c1cccs1 | -4.8 |

— paper PMC4336329 (PLoS ONE, 2015)
